Results taken from publication PMC4336329 (PLoS ONE, 2015).
The campaign covered roughly 310,000 compounds. About 2,200 (0.71%) showed an effect of 50% or more. The effect is printed as a negative number. Some of the results follow.

Target: human ether-à-go-go-related gene (hERG) potassium channel (human, UniProt Q12809)
Assay: primary screen, population patch clamp on CHO cells stably expressing hERG

Chain of human ether-à-go-go-related gene (hERG) potassium channel (Q12809 whole entry, looked up): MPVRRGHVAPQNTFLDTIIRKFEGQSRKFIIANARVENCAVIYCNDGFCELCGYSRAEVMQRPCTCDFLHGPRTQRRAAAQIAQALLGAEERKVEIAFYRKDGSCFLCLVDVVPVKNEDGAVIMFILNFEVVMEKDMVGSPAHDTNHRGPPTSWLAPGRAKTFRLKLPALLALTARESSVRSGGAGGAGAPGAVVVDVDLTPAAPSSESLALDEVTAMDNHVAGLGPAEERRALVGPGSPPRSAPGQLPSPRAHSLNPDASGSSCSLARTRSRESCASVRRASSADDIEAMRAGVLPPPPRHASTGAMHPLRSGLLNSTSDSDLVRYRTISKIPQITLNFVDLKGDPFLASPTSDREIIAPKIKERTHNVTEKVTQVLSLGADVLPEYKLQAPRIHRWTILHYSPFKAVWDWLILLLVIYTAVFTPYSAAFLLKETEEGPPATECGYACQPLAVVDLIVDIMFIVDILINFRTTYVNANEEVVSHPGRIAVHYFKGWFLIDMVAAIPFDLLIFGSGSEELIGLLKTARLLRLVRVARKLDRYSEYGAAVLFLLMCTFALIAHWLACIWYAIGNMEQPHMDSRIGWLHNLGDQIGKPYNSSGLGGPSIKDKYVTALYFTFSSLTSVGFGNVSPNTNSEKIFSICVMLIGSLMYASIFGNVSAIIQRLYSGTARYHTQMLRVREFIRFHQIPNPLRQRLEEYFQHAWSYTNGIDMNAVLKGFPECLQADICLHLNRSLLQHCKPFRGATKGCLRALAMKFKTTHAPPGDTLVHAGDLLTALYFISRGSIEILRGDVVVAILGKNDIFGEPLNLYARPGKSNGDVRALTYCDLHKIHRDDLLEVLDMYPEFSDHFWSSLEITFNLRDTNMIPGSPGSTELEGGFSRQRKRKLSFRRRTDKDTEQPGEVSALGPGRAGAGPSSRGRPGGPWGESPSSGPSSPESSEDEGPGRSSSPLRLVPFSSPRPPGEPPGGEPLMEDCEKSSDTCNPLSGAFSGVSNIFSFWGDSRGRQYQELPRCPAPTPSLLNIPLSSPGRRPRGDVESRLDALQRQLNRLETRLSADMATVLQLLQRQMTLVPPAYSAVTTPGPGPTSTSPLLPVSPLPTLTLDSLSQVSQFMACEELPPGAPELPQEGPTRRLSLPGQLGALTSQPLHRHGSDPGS

SMILES	hERG current change (%, negative = inhibition) at 1uM [%]
Cc1ccc(N=C2C(=O)Nc3c(C)cccc32)cc1	6.74
C/C(=N\NC(=S)NC(C)C)c1ccc(Cl)c([N+](=O)[O-])c1	11
COc1cccc(-c2nc(N3CCN(C)CC3)c3ccccc3n2)c1O	10.6
CCOCCN1CCN(C(=O)CN2CCCC2=O)CC1.O=C(O)/C=C\C(=O)O	5.33
Cc1ccccc1-c1nnc(SCCOc2ccc3c(C)cc(=O)oc3c2)o1	21.9
CN(C)C(=O)COc1ccc(Oc2ccccc2)cc1	1.77
COCCNC(=O)CN(Cc1ccc(F)cc1)C(=O)CCC(=O)Nc1nccs1	-0.953
CCN(CC(=O)NCc1ccc(F)cc1)C(=O)/C=C/c1ccco1	-4.75
Cc1ccccc1CNC(=O)Cc1cccs1	4.63
CCc1ccc(C2NC(c3ccc(CC)cc3)C([N+](=O)[O-])C(C)(C)C2[N+](=O)[O-])cc1 (centres unmarked)	4.8
Nc1ccccc1C(=O)c1ccccc1	5.55
CCc1ccccc1NC(=O)[C@@H]1CCC(=O)N1C1OC(=O)c2ccccc21 (some centres unmarked)	15.5
CC(=O)N1CCc2ccccc2C1CC(=O)O (centres unmarked)	6.78
CC(=O)N1CCN(C(=O)c2ccc(NS(=O)(=O)c3ccc4[nH]c(=O)[nH]c4c3)cc2)CC1	9.21
Cc1ccc(CNc2nc(N)c([N+](=O)[O-])c(Nc3ccc(F)cc3)n2)cc1	-2.55
COc1cccc(/C=N/NC(=O)Cn2nc([N+](=O)[O-])cc2C)c1	9.59
O=C(c1cc(-c2ccco2)on1)N1CCOCC1	6.35
CC(=O)Nc1ccc2nc(NC(=O)COc3ccc(C)cc3)sc2c1	5.97
O=C(O)CCN1C(=O)CC2(CCCCC2)C1=O	12.9
O=C(CCNS(=O)(=O)c1cccc2nonc12)NC1CCCCC1	12.4
Fc1ccc(-n2nnc(-c3cccnc3Cl)n2)cc1	18.5
CCOc1ccccc1NC(=O)CN(C)S(=O)(=O)c1cccc2nsnc12	4.06
Cc1ccc(S(=O)(=O)N2CCC(C(=O)NCCCN3CCOCC3)CC2)cc1C	7.71

SMILES	hERG current change (%, negative = inhibition) at 1uM [%]
CCOc1ccccc1C(=O)Nc1nccs1	5.69
O/C(=C\c1ccc2ccccc2n1)c1ccc(O)cc1O	1.97
O=C(CSCC(=O)N1CCCCC1)Nc1nc(-c2cccs2)cs1	5.94
O=S(=O)(c1ccccc1)c1nc(-c2cccs2)oc1NCc1cccnc1	3.56
CCOC(=O)C1CCN(C(=O)CN(c2cc(OC)ccc2OC)S(=O)(=O)c2ccccc2)CC1	10.9
COc1ccc(-n2nc(C(=O)NCC(=O)N3CC(C)CC(C)C3)c3ccccc3c2=O)cc1OC (centres unmarked)	6.93
CSc1ccccc1C(=O)N(CC1CCCO1)c1c(N)n(Cc2ccccc2)c(=O)[nH]c1=O (centres unmarked)	2.31
Cc1c(C(=O)N2CCOCC2)oc2c1C(=O)CC(C)(C)C2	-5.92
O=C(c1csc2c1CCCC2)N1CCN(c2ncccn2)CC1	1.96
CCC/C=C(\CCC)C(NC(=O)c1ccc(C(=O)OC)cc1)c1ccc(C(=O)OC)cc1 (centres unmarked)	12.2
O=C(NC1CCCC1)C(c1ccccc1)N(Cc1ccc2c(c1)OCO2)C(=O)Cc1cccs1 (centres unmarked)	10.2
O=C(CSc1ncnc2ccccc12)NCCc1ccccc1	3.1
Fc1cccc(Nc2nc(-c3ccncc3)nc3ccccc23)c1	17.8
Cc1ccc(NC(=O)c2sc(=S)n(-c3cc(C)ccc3F)c2N)cc1	6.25
O=C(O)CCCN1C(=O)c2cccc3cccc(c23)C1=O	6.67
CCOc1ccccc1NC(=S)N(CCOC)C1CCN(C(C)=O)CC1	2.85
CC(Oc1ccc(Br)cc1)C(=O)Nc1nc(-c2ccccn2)cs1 (centres unmarked)	12.9
O=c1[nH]cnc2sc3c(c12)CN(Cc1ccccc1)CC3	9.54
CCN(c1ccc(NC(=O)c2ccc(Cl)nc2)cc1)C(C)C	12.2
CCN(CC)S(=O)(=O)c1cccc(C(=O)OCC(=O)NCCN2C(=O)CSC2=O)c1	3.42
COc1ccc(C2(O)CCN(C(=O)NC3CCCCC3)CC2)cc1	12.2
O=C(C1=C(Nc2ccccc2)c2ccccc2S(=O)(=O)N1)c1ccccc1	12.9
CN(C)S(=O)(=O)c1cc(NC(=O)COC(=O)Cc2ccc(Br)cc2)ccc1Cl	7.98

SMILES	hERG current change (%, negative = inhibition) at 1uM [%]
Cn1c(Cn2nnc3ccccc32)nnc1SCC(=O)Nc1ccc2c(c1)OCO2	8.02
CN(CC(=O)NC1CCN(Cc2ccccc2)CC1)S(=O)(=O)c1ccc2c(c1)c(=O)n(C)c(=O)n2C	7.41
CC(C)OC(=O)c1ccc(COC(=O)CNC(=O)c2ccco2)cc1	8.6
C(#CC12CC3CC(CC(C3)C1)C2)CN1CCOCC1	11.9
CCOc1ccc(NC(=O)CSc2nc3c(c(=O)n2-c2ccccc2OC)SCC3)cc1	12.5
N#CCCCN1C(=O)C(O)(CC(=O)c2ccc3c(c2)OCCO3)c2ccccc21 (centres unmarked)	15.6
O.O=C(O)[C@@H]1[C@H]2C[C@H]3c4[nH]c5ccccc5c4CCN3C[C@@H]2CC[C@@H]1O	12.4
Cc1onc(-c2ccccc2)c1C(=O)Nc1cc(C(F)(F)F)ccc1N1CCOCC1	-12
Cc1snc(SCc2ccc(Cl)cc2)c1C#N	13.1
Cc1ccc(NC(=O)CC2OC(=O)c3ccccc32)cc1S(=O)(=O)N1CCCCCC1 (centres unmarked)	9.38
COc1ccccc1NC1=C(Cl)C(=O)N(C2CCCCC2)C1=O	11.8
Cc1ccc(C(=O)OCC(=O)NCc2ccc(Cl)cc2Cl)o1	9.43
CN(Cc1ccc(Cl)s1)C(=O)CSc1nnc(C2CC2)n1C1CC1	3.28
CSc1ccccc1OCc1cc(C(=O)N(C)Cc2ccncn2)no1	7.93
Cc1ccc(S(=O)(=O)CCC(=O)Nc2nnc(-c3ccccc3S(C)(=O)=O)o2)cc1	-0.117
O=C(Nc1ccc(C(F)(F)F)cc1Cl)c1ccc(Cn2cc(Br)cn2)o1	1.86
CCN1CCN(c2nc(-c3ccccn3)nc3ccccc23)CC1	-17.5
CCN1CCN(c2nc([N+](=O)[O-])nn2C)CC1	8.74
CCn1c(SCC(N)=O)nnc1-c1ccc(OC)c(OC)c1	19.4
COCCCNC(=O)c1cccc(NC(=O)c2ccccc2)c1	5.05
CC(C)c1cc(C(=O)N2CCCC(CCC(=O)NCc3ccccc3F)C2)n(C)n1 (centres unmarked)	10
Cl.OC(COc1ccc(Br)cc1)CN1CCOCC1 (centres unmarked)	2.57
CC(=O)Nc1ccc(Nc2nc3ccccc3n3cnnc23)cc1	9.36

SMILES	hERG current change (%, negative = inhibition) at 1uM [%]
Cc1ccc(-n2nc(C)c3c2OC(N)=C(C#N)C3c2cccs2)cc1 (centres unmarked)	9.08
O=C(CCCCl)NC(=S)Nc1cc(C(F)(F)F)ccc1N1CCOCC1	-12.3
COc1ccc(S(=O)(=O)NCCSc2ccc(C)cc2)cc1OC	7.73
N#CCC(=O)N1CCN(C=O)CC1	2.78
COC(=O)/C(=C\Nc1ccc(OC)cc1)NC(=O)c1ccc(Cl)cc1Cl	8.83
COc1ccc(C(=O)NCCOc2ccccc2)cc1S(=O)(=O)N1CCOCC1	5.18
Cc1cccn2c(=O)c3cc(S(=O)(=O)c4ccccc4)c(=N)n(Cc4ccco4)c3nc12	5.3
O=C(NC1CC2CCC1C2)c1ccc(CN2CCOCC2)cc1 (centres unmarked)	6.26
CCOC(=O)C1(C(F)(F)F)N=C(c2cccnc2)OC(N2CCCCC2)=N1 (centres unmarked)	11.2
O=C1C=C(c2cccc(O)c2)CCC1	12.4
O=c1c2c3c(sc2n2cnnc2n1CCc1ccccc1)CCCC3	7.42
O=S(=O)(NCC1CCCO1)c1cccc2nsnc12 (centres unmarked)	9.58
O=C1NC(=O)N(Cc2ccccc2)C(=O)/C1=C/c1cnc(-c2ccccc2)nc1	13.1
Cc1cccc(-n2[nH]c3c4c(ccc3c2=O)C(=O)c2ccccc2C4=O)c1	9.28
O=C(CC(=O)c1ccccc1)Nc1cc([N+](=O)[O-])ccc1Cl	11.3
C#CC(CC)(CC)NC(=S)Nc1ccc(S(N)(=O)=O)cc1	12.3
O=C1NCCN(Cc2cccc(Oc3ccccc3)c2)C1CC(=O)N1CCCCC1 (centres unmarked)	12.7
COC(=O)CSc1nc(C)c2c(n1)CCCC2	-12.4
[N-]=[N+]=NC[C@H](Cc1ccccc1)N1CC[C@@H](NC(=O)OCc2ccccc2)CCC1=O	-13.1
CCN(CC)C(=O)c1ccc(NC(=O)COC(=O)c2ccc(Cl)s2)cc1	-0.025
